From the RNAGym collection of RNA variant scans (doi:10.7554/elife.90254) come the findings set out here.

Read counts are not given, so values of variants with three or more changes are uncertain.

B1: LINE1-full (parent)
chain: UACGUAGGUGGUUUUCCCCUGAUAGUGCUAAGGGGGCCUGGAAGUUUGGACUGGGCAGAGCUCAACACAGCGUGGCAAAGUGGCUGUGGCUAGACUGCCUCUCUGGAUUCCUCGUCACUCAGCAGGGCAUCUCUGAGAGAAAUGCC

The variants in the data set derive from B1. Put plainly: self-cleavage, relative activity (ratio to wild type); higher = more cleavage; in vitro, sequencing; the parent is a self-cleaving ribozyme.
Take UACGUAGGUGGUUUUCCCCUGAUACUGCUAAGGGGGCCUGGUAGUUUGGACUGGGCAGAGCACAACACAGCGUGGCAAAGUGGCUGUGGCUAGACUGCCUCUCUGGAUUCCUCGUCACUCAGCAGGGCAUCUCUGAGAGAAAUGCC [G25C A42U U62A]: the self-cleavage came out at 0.04.

Take UACGUAGGUGGUGUUCCCCUGAUAGUGCUAAGGGGGCCUGGGAGCUUGGACUGGGCAGAGCUCAACACAGCGUGGCAAAGUGGCUGUGGCUAGGCUGCCUCUCUGGAUUCCUCGUCACUCAGCAGGGCAUCUCUGAGAGAAAUGCC [U13G A42G U45C A94G]: the self-cleavage came to 0.

Consider UACGUAGGUGGUUUUCCUCUGAUAGAGCUCAGGGGGCCUGGAAGUUUGGGCUGGGCAGAGCUCAACACGGCGUGGCAAAGUGGCUGUGGCUAGACUGCCUCUCUGGAUUCCUCGUCACUCAGCAGGGCAUCUCUGAGAGAAAUGCC [C18U U26A A30C A50G A69G], for which the self-cleavage was determined as 0.

With UACGUAGGUGGUUUUCCCCUGAUAGUGCUAAGGGGGCCUGGAAGUUUGGACUGGGCAGAGCCCAACACAGGGAGGCAAAGUGGCUGAGGCUAGACUGCCUCUCUGGAUUCCUCGUCACUCAGCGGGGCAUCUCCGAGAGAAAUGCC [U62C C71G U73A U87A A124G U134C], the self-cleavage was determined as 0.28.

As to UACGUAGGUGGUUUUCCCCUGAUAGUGCUAAGGGGGGCUGGAAGUCUGGACUGGGCAGAGCUCAACACAGCGUGGCAAAGUGGCUGUGGCUAGACUGCCUCUCAGGAUUCCUCGUCACUCAGCAGGGCAUCUCUGAGAGAAAUGCC [C37G U46C U104A], the self-cleavage amounted to 1.2.

For UACGUAGGUGGUUUUCCCCUGAUAGUGCUAAGGGGGCCUGGAAGUUUGGACUGGGCGGAGCUCAACACAGCGUGGCAAAGUGGCUGUGGCUAGACUGCCUCUCUGGAUUCCUCGUCACUCAGCAGGGCGUCUCUGAGAGAGAUGCC [A57G A129G A141G], the self-cleavage turned out to be 1.72.

UACGUAGGGGGUUUUCCCCUGAUAGUGCUAAGGGGGCCUGGAAGUUAGGACUGGGCAUAGCUCAACACAGCGUGGCAAAGUGGCUGUGGCUAGACUGCCUCUCUGGAUUCCUCGUCACUCGGCAGGGCAUCUCUGAGAGAAAUGCC [U9G U47A G58U A121G]: the self-cleavage worked out at 0.26.

As for UACGUAGGUGGUUUUCCCCUGAUAGUGCCAAGGGGGCCUGGAGGUUUGGACUGGGCAGAGCUCAACACAGCGUGGCAAAGUGGCUGUGGCUAGACCGCCUCUCUGGAUUCCUCGUCACUCAGCAGGGCAUCUAUGGGAGAAAUGCC [U29C A43G U96C C133A A136G], the self-cleavage came out at 0.

For the variant UACGUAGGUGGUUUUCCCCUGAUAGUGCUAAGGGGGCCUGGAAGUUUGGACUGGGCAGAGCUCAACACAGCGUGGCAAAGUGGCUGUGGCUGGACAGCCUCUCUGGAUUCCCCGUCACUCAGCAGGGCAUCUCUGAGAGUAAUGCC [A92G U96A U112C A140U], the self-cleavage is 0.1.

For UACGUAGGUGGUUUUCCCCUGAUAGUGCUAAGGGGGCCUGGAAGUUUGGACUGGGCAGAGCUUAACACAGCGUUGCAAAGUGGCUGUGGCUAGACUGCCUCUCUGGAUUCCUCGUCACUCAGCAGGGCAUCUCUGAGAGAGAUGCC [C63U G74U A141G], the self-cleavage worked out at 0.38.

Regarding UACGUAGGUGGUUUUCCCCUGAUAGUGCUAAGGGGGCCUGGAAGUUUGGACUGGGCAGAGCUCAACACAGCGUGGCCAAGUGGUUGGGGCUAGACUGCCUCUCUGGAUUCCUCGUCACUCAGCAGGGCAUCUCUGAGAGAAAUGCC [A77C C84U U87G], the self-cleavage was 0.03.

With UACGUAGGUGGGUUUCCCCUGAUAGUGCUAAGGGGGCCUGGAAGUUUGGACCGGGCGGAGCUCAACACAGCGUGGCAAAGUGGCUGUGGCUAGACUGCCUCUCUGGAUUCCUCGUCACUCAGCAGGGCAUCUCUGAGAGAAAUGCC [U12G U52C A57G], the self-cleavage was 2.24.

With UACGUAGGUGGUUUUCCCCUGAUAGUGCUAAUGGGGCCUGGAAGCUUGGACUGGGCAGAGCUCAACACAGCGUGGCAAAGUGGCUGUGGCUAGACUGCCUCUCUGGAUUCCUCGCCACUCAGCUGGGCAUCUCUGAGAGAAAUGCC [G32U U45C U115C A124U], the self-cleavage came to 1.37.

As to UACGUAGGUGGUUUUCCCCUGAUAGUGCUAAGGGGGCCUGGAAGUUUGGUCUGGGCAGAGCUCAACACAGCGUGGCAAAGUGGCUGCGGCUAGACUGCCUCUCUGGUUUCCUCGUCACUCAGCAGGGCAUCUCUGAGAGAAAUGCC [A50U U87C A107U], the self-cleavage stood at 0.34.

UACGUAGGUGGUUUUCCCUUGAUAGUGCUAAGGGGGCCUGGAAGUUUGGACUGGGCAGAGCUCAACACAGCGUGGCAAAGUGGCUGUGGCUAGACUGCCUCUCUGGAUCCCUCGUCACUCAGCAGGGCAUCUCUGAGAGAGAUGCC [C19U U109C A141G]: the self-cleavage was 1.51.

Take UACGUAGGUGGAUUUCCCCUGAUAGUGCUAAGGGGGCCUGGAAGUUUGGACUGGGCAGAGCUCAACACAGCGUGGCAAGGUGGCCGUGGCUAGACUGCCUCUCAGGAUUCCUCGUCACUCAGCAGGGCAUCUCUGAGAGAAAUGCC [U12A A79G U85C U104A]: the self-cleavage stood at 0.

UACGUAGGUGGUUUUCCCCUGAUAGUGCUAAGGGGGCCUGGAAGUUUGGACUGGGCAGGGCUCAACACAGCGUGGCUAAGUGGCUGUGGCUAGACUGCCUCUCUGGAUUCCUCGUCACUCAGCAGGGCAUCUCUGAGAGGAAUGCC [A59G A77U A140G]: the self-cleavage worked out at 0.07.

As for UACGGAGGUGGUCUUCCCCUGAUAGUGCUAAGGGGGCCUGGAGGUUUGGACUGGGCAGAGCUCAACACAGCGUGGCAAAGUGGCUGUGGCUAGACUGCCUCUCUGGAUUCCUCGUCACUCAGCAGGGCAUCUCUGAGAGAAAUGCC [U5G U13C A43G], the self-cleavage is 0.56.

In the case of UACGUAGGUGGUUUUCCCCUGAUAGCGCUAAGGGGGCCUGGAAGUUUGGACUGGGCAGAGCUCAACACAGCGUGGCAAAGUGGCUGUGGCUAGACAGCCUCACUGGAUUCCUCGUCACUCAGCAGGGCAUCUCUGAGAGAAAUGCC [U26C U96A U102A], the self-cleavage is 0.08.

With UACGUAGGUGGUUUUCCCCUGAUAGUGCUAAGGGAGCCUGGAAGUUUGGACUGGGCAGAGCUCAACACAGCGUGGCAAAGAGGCUGUGGCUAGACUGCCUCACUGGAUUCCUCGUCACUCAGCAGGGCAUCUCUGAGAGAAAUGCC [G35A U81A U102A], the self-cleavage came out at 1.59.
